# Measured values as given in PubChem BioAssay AID504706 (National Center for Advancing Translational Sciences (NCATS), 2011).
# Hit rate of the full screen: of about 320,000 compounds, about 200 (0.062%) were called active. The shares of active, inactive and inconclusive entries below differ from those in the screen. Calls follow the shape of the dose curve; as a rule, active = well fitted activation curve with a large enough effect; inconclusive = small, poorly fitted or top-dose-only effect; inactive = no such curve, though single readings can be large or run the other way. No potency is given beside an inconclusive call; the fits are too rough.
# Assay: qHTS assay for re-activators of p53 using a Luc reporter; also: nearly all actives have a fitted effect of over 45% in size
# Details: H1299 p53-A138V BP100-luciferase reporter, luminescence, 24 h; series mostly up to 92.2 µM
# Procedure, shortened: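 p53-null H1299 cells stably carrying temperature-sensitive p53-A138V and a BP100-luciferase reporter were pinned with compounds (4-point, 1:5 series) and held 24 hrs at 37 deg C. Luminescence was read 10 min after detection reagent.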
# Potency is read from the fitted curve at half-maximal effect; tags tell the direction and shape of the fitted curve.
row,SMILES,Potency
1,Oc1ccc(/C=N/Nc2nccnc2Cl)cc1,"inconclusive [activator, partial curve, poor fit]"
2,Cc1cc(=O)[nH]c(N/N=C/c2cc(C)n(-c3ccccc3)c2C)n1,"inconclusive [activator, full curve, poor fit]"
3,O=C(Nc1ccc(F)cc1)c1cc2c(s1)CCCC2,"inconclusive [activator, partial curve, poor fit]"
4,COc1ccccc1CNC(=O)C1CC(c2ccc([N+](=O)[O-])cc2)=NO1 (centres undefined),"inconclusive [activator, partial curve, poor fit]"
5,CCCCCSc1nc(N2CCOCC2)c2c(c1C#N)CC(C)(C)OC2,inactive
6,O=C(CCCc1cccs1)Nc1nc2c(s1)CCCC2,"inconclusive [activator, full curve, poor fit]"
7,COc1ccc(/C=C(\C#N)c2c[nH]c3ccccc23)cc1,active: 31.6 µM
8,CCCOC(=O)c1ccc(NC(=O)c2cnccn2)cc1,"inconclusive [activator, partial curve, poor fit]"
9,O=C(NCCN1Cc2ccccc2C1=O)c1cccs1,"inconclusive [activator, single point]"
10,COc1ccc(C(=O)COC(=O)c2ccccn2)c(OC)c1,"inconclusive [activator, partial curve]"
11,O=C(COC(=O)c1c(F)cccc1Cl)NC(=O)Nc1ccc2c(c1)OCCO2,"inconclusive [activator, single point]"
12,CCN1CCCC1CNC(=O)c1cc(COc2ccc(C)c(C)c2)on1 (centres undefined),"inconclusive [activator, partial curve, poor fit]"
13,C=C(C)CNC(=S)N/N=C1\CCCCc2ccccc21,inactive
14,S=C(Nc1ccccc1)Nc1nccs1,"inconclusive [activator, partial curve, poor fit]"
15,CC(C)NC(=S)N/N=C1\CCCCC1C1CCCCC1 (centres undefined),"inconclusive [activator, partial curve, poor fit]"
16,CN1CSC2=C(C#N)C(c3cccc(OCc4ccccc4)c3)CC(=O)N2C1 (centres undefined),"inconclusive [activator, partial curve, poor fit]"
17,Oc1ccccc1/C=N/Nc1nc2ccccc2o1,"inconclusive [activator, full curve, poor fit]"
18,O=[N+]([O-])c1ccc(Oc2ccc(Oc3ccc(C(F)(F)F)cn3)cc2)nc1,inactive
19,CCCc1c(O)nc(SC2CC(=O)N(c3ccc(OC)cc3)C2=O)[nH]c1=O (centres undefined),inactive
20,CCOc1cc(/C=N/n2cnnc2)cc(Br)c1O,"inconclusive [activator, single point]"
21,c1cncc(-c2noc(C34CC5CC(CC(C5)C3)C4)n2)c1,"inconclusive [activator, single point]"
22,Cc1ccc(S(=O)(=O)CNC(=S)c2ccc3ccccc3c2)cc1,inactive
23,COc1ccc(N2CCN(S(=O)(=O)CCNC(=O)COc3cccc(OC)c3)CC2)cc1,inactive

row,SMILES,Potency
1,CC(Oc1ccccc1)C(=O)Nc1cccc(-c2nc3ccccc3[nH]2)c1 (centres undefined),"inconclusive [activator, single point]"
2,Nc1nonc1-n1nnc(C(=O)N/N=C/c2cc(Br)ccc2O)c1CSC1=NCCS1,"inconclusive [activator, partial curve, poor fit]"
3,N=c1oc2ccccc2cc1-c1nc(-c2ccc(Cl)cc2)cs1,inactive
4,Cc1nc(NC(=S)NC(=O)c2cccs2)ccc1Br,"inconclusive [activator, full curve, poor fit]"
5,COc1ccccc1CN1CC(C(=O)N(C)Cc2ccc(C)o2)CCC1=O (centres undefined),"inconclusive [activator, partial curve, poor fit]"
6,Cc1ccc(/C=C2/SC(=S)N(CCC(=O)N3CCOCC3)C2=O)cc1,"inconclusive [activator, single point]"
7,COc1ccccc1-n1nnnc1SCC(=O)N1CCCC1=O,"inconclusive [activator, partial curve, poor fit]"
8,Cc1ccc(C)n1-c1ccc(C(=O)NC2CCN(Cc3ccccc3)CC2)cc1,"inconclusive [activator, single point]"
9,Cc1cccc(-n2c(CCN3C(=O)c4ccccc4C3=O)nc3ccccc3c2=O)n1,inactive
10,CC(C)c1cccc(OCC(=O)Nc2ccc(S(=O)(=O)Nc3ccccn3)cc2)c1,"inconclusive [activator, single point]"
11,O=C(CCNC(=O)c1ccc([N+](=O)[O-])cc1)NC1CCCCCC1,"inconclusive [activator, partial curve, poor fit]"
12,COc1ccc(-n2c(C)nc3c(cnn3-c3ccc(C)c(C)c3)c2=O)cc1,"inconclusive [activator, partial curve, poor fit]"
13,Cc1nn2c(COc3ccc(NC(=O)c4ccccc4Cl)cc3)nnc2c2ccccc12,inactive
14,O=C(/C=C/c1ccc(O)c([N+](=O)[O-])c1)c1ccc2ccccc2c1,"inconclusive [activator, partial curve, poor fit]"
15,Cc1ccc(NC(=O)c2ccc(=O)[nH]n2)cc1S(=O)(=O)Nc1ccccc1Cl,"inconclusive [activator, single point]"
16,COc1c(OC(C)=O)ccc(/C=C/c2ccc3cccc(OCc4ccccc4)c3n2)c1[N+](=O)[O-],"inconclusive [activator, full curve, poor fit]"
17,CCOC(=O)c1c(C)c(C#N)c2c3ccccc3ccn12,inactive
18,COCCn1c(=S)[nH]c2cc(C(=O)N3CCc4ccccc43)ccc2c1=O,inactive
19,O=C1CC(c2cccc(O)c2)Oc2ccccc21 (centres undefined),"inconclusive [activator, full curve, poor fit]"
20,Cc1ccccc1NC(=O)c1ccc(F)c(S(=O)(=O)N2CCN(c3ccccn3)CC2)c1,inactive
21,c1ccn(-c2ccc(N3CCOCC3)cc2)c1,"inconclusive [activator, partial curve, poor fit]"
22,COc1ccc(C2(C)CC(=O)NC2=O)cc1 (centres undefined),inactive
23,CCOC(=O)C1(Cc2cccc(OC)c2)CCCN(C(=O)c2cc(C)oc2C)C1 (centres undefined),"inconclusive [activator, partial curve, poor fit]"

row,SMILES,Potency
1,COc1ccccc1NC(=O)Cc1nc(CCl)cs1,inactive
2,C/C(=N\NC(=O)c1ccccc1F)c1ccc2c(c1)Nc1ccccc1S2,"inconclusive [activator, single point]"
3,c1ccc(CSc2nnc(-c3ccco3)o2)cc1,"inconclusive [activator, single point]"
4,Cc1oc(C(=O)O)cc1COc1ccc2c3c(c(=O)oc2c1C)CCC3,inactive
5,COc1ccc(/C=N/NC(=O)CN2CCCC2)cc1,"inconclusive [activator, single point]"
6,Cc1nn(-c2ccc(N3CCCCC3)nn2)c(C)c1CCC(=O)Nc1cccc(F)c1,"inconclusive [activator, partial curve, poor fit]"
7,c1ccc2c(c1)oc1c(N3CCOCC3)ncnc12,"inconclusive [activator, single point]"
8,CCCN1CCN(C(=S)Nc2ccccc2C(F)(F)F)CC1,inactive
9,S=C(Nc1ccccc1Cl)Nc1ccc(Cl)cc1Cl,inactive
10,O=C(CCc1nc(-c2ccccc2F)no1)NCCN1CCN(Cc2ccccc2)CC1,"inconclusive [activator, single point]"
11,N#CCCn1c(=O)n(CCC#N)c2ccccc21,"inconclusive [activator, single point]"
12,Cc1csc(N/N=C/c2c(F)cccc2Cl)n1,"inconclusive [activator, full curve, poor fit]"
13,C=CCNC(=S)Nc1ccc2nc(C)oc2c1,inactive
14,CC(C)COc1ccc(-c2nnn(CC(=O)N3CCCC3)n2)cc1,"inconclusive [activator, partial curve, poor fit]"
15,COCC(C)NC(=O)COc1nncc2ccccc12 (centres undefined),"inconclusive [activator, partial curve, poor fit]"
16,O=C(COc1ccc(/C=N/NS(=O)(=O)c2ccccc2)cc1)Nc1cccc(Cl)c1,"inconclusive [activator, partial curve, poor fit]"
17,CC(C)c1ccc(OCC(=O)N2CCCCCC2)c(Br)c1,inactive
18,COc1ccccc1N=Nc1[nH]c2ccc(C)cc2c1O,"inconclusive [activator, partial curve, poor fit]"
19,COc1ccc(-c2csc(Nc3ccccc3)n2)cc1,inactive
20,COc1ccc(S(=O)(=O)N2CCc3ccccc32)cc1C(=O)NCCc1ccc(S(N)(=O)=O)cc1,"inconclusive [activator, single point]"
21,C/C(=C1/C(=O)N(c2ccc([N+](=O)[O-])cc2)N=C1c1ccccc1)N(C)C,"inconclusive [activator, single point]"
22,N#C/C(=N\Nc1ccccc1F)C(=N)N1CCCCC1,"inconclusive [activator, full curve, poor fit]"
23,CCCNC(=S)N(Cc1ccccc1)Cc1nc2ccccc2c(=O)[nH]1,inactive
